The campaign covered roughly 420,000 compounds. About 50,000 (12%) were called active. The inconclusive results got no clear call from the source; some entries with a clear call stand among them for comparison. Calls follow the shape of the dose curve; as a rule, active = well fitted inhibition curve with a large enough effect; inconclusive = small, poorly fitted or top-dose-only effect; inactive = flat fitted curve, though single readings scatter. Potencies of inconclusive entries are left out as doubtful fits.
Test: qHTS for Inhibitors of human tyrosyl-DNA phosphodiesterase 1 (TDP1): qHTS in cells in presence of CPT; also: nearly all actives have a fitted effect of over 55% in size
Details: chicken DT40 Tdp1-/-;hTDP1 cells + 20 nM CPT, ATP luminescence, 48 h; activity change, negative = growth inhibition: at 46.2 µM (top of the series)
How it was run: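 Chicken DT40 Tdp1-/- cells stably complemented with human TDP1 were seeded at 400 cells/well in medium containing 20 nM camptothecin, exposed to pin-transferred compounds, and grown at 37 °C for at least 48 hr. Viability was read as ATP luminescence.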
% is scaled to controls: 0 for no effect and ±100 for the full control effect; potency is read from the fitted curve at half-maximal effect; tags tell the direction and shape of the fitted curve.

Structure (SMILES) | activity change, negative = growth inhibition | Potency
COC(=O)c1c(NC(=O)CN2C(=O)c3ccccc3C2=O)sc(Cc2ccc3c(c2)OCO3)c1C | inactive: -27.3% | 
COc1cccc(C2Nc3cccc4cccc(c34)N2)c1 | inactive: -4.51% | 
CC(OC(=O)CCN=C1NS(=O)(=O)c2ccccc21)C(=O)N(C)c1ccccc1 (stereo not given) |  | inconclusive [inhibitor, single point]
O=C(NCCc1c[nH]c2ccccc12)C1CCC(=O)N(CCc2cccc(F)c2)C1 (stereo not given) |  | inconclusive [inhibitor, single point]
Cc1cc(-c2csc(N)n2)c(C)n1CCc1ccccc1 |  | active: 23.1 µM
Cc1cc2ccccc2nc1SCC(=O)NC1CCCC1 |  | inconclusive [inhibitor, single point]
COc1ccc(CC(N)c2csc(Nc3ncccn3)n2)cc1 (stereo not given) |  | active: 4.61 µM
CCCn1c2ccccc2c2cnn(CC(=O)NC(CCSC)C(=O)OC)c(=O)c21 (stereo not given) |  | inconclusive [inhibitor, single point]
CC(C)n1nnnc1SCC(=O)c1ccc2c(c1)OCCO2 |  | inconclusive [inhibitor, single point]
CSc1ncnc2c1ncn2CCCN1CCN(Cc2c(C)cc(C)cc2C)CC1 |  | inconclusive [inhibitor, single point]
CC(C)CCN(Cc1ccco1)S(=O)(=O)c1csc(C(N)=O)c1 |  | active: 18.4 µM
O=C(CN1C(=O)CSc2ncccc21)Nc1cccc(Cl)c1 |  | inconclusive [inhibitor, partial curve, poor fit]
Cc1nc(NCc2cccnc2)c2c3c(sc2n1)CCCC3 |  | inconclusive [inhibitor, single point]
O=C1CSC(c2cn(-c3ccccc3)nc2-c2cc3ccccc3oc2=O)N1Cc1ccco1 (stereo not given) |  | inconclusive [inhibitor, single point]
COc1cccc(C2(c3cccc(OC)c3)CC2C(=O)Nc2ccccc2Cl)c1 (stereo not given) |  | inconclusive [inhibitor, single point]
CC(OC(=O)c1ccc(Cl)nc1)C(=O)Nc1ccc(S(=O)(=O)N2CCCC2)cc1 (stereo not given) | inactive: 3.74% | 
COc1cc(OC)c2nc(C)c3c(c2c1)N(c1ccc(O)cc1)CC3 |  | inconclusive [inhibitor, single point]
Oc1c(CN2CCN(c3ccccn3)CC2)cc(Cl)c2cccnc12 |  | active: 4.61 µM
CC(C)CCn1c(O)c(N=NC(=O)c2ccco2)c2ccccc21 | inactive: -18.9% | 
N#CCCN/N=C(\Cc1nc2ccccc2[nH]1)c1ccccc1 |  | inconclusive [inhibitor, partial curve]
C[C@@H]1C[C@H]2[C@@H]3C[C@H](F)C4=CC(=O)C(Cl)=C[C@]4(C)[C@@]3(F)[C@@H](O)C[C@]2(C)[C@@]1(O)C(=O)CO |  | inconclusive [inhibitor, single point]
CC(=O)N1CCCC(C)(C(=O)N(C)Cc2cccc3ccccc23)C1 (stereo not given) |  | active: 23.1 µM
CN(CC(=O)Nc1ccccc1-c1ccccc1)Cc1ccccc1Cl |  | inconclusive [inhibitor, single point]

Structure (SMILES) | activity change, negative = growth inhibition | Potency
C/C(=N\NC(=O)c1ccccc1-n1cccc1)c1ccccn1 |  | active: 2.06 µM
CCN(CC(=O)Nc1ccc(OC)cc1)C(=O)c1cc(-c2cccs2)nn1-c1ccccc1 |  | inconclusive [inhibitor, partial curve, poor fit]
Cc1c(C(=O)NCCN(C)C)sc2nc3n(c(=O)c12)CCC3 | inactive: 0.397% | 
CCOC(=O)c1nnc2c(-c3ccc(Cl)cc3)c(C)nn2c1C |  | inconclusive [inhibitor, single point]
C=CC(=O)Nc1ccc(Nc2nc(NC3CCC(N(C)C)CC3)nc3c2ncn3C(C)C)cc1 (stereo not given) |  | active: 0.326 µM
O=C(Nc1ccc(-c2noc(-c3ccccc3F)n2)cc1)c1cccs1 |  | inconclusive [inhibitor, single point]
CC(=O)Nc1ccc(NC(=O)c2ccc(C)c(S(=O)(=O)Nc3cccc(C)c3)c2)cc1 |  | inconclusive [inhibitor, partial curve]
COc1ccc(-c2cc(-c3ccc(F)cc3)nc(N3CCN(C)CC3)n2)cc1 |  | inconclusive [inhibitor, single point]
CCOC(=O)N1CCC(Nc2ncnc3c2cnn3-c2ccc(C)cc2C)CC1 |  | active: 10.3 µM
O=S1(=O)c2ccc(Br)cc2N2CCC[C@@H]2CN1Cc1ccc(Cl)cc1 |  | inconclusive [inhibitor, single point]
N[C@H](C(=O)O)c1cc(O)cc(O)c1 | inconclusive: -33.5% [inhibitor] | 
COc1ccc(-c2csc(NC(=O)CSCC(=O)Nc3cc(C)on3)n2)cc1OC |  | inconclusive [inhibitor, single point]
CNc1cc(-c2c(C)noc2C)ncn1 |  | active: 13 µM
Clc1cccc(Cc2c(-c3ccccc3)nc3ccc(Br)cn23)c1 |  | inconclusive [inhibitor, single point]
Oc1ccc(C[C@@H](CN2CCC[C@@H]2CN2C(=S)NC[C@@H]2Cc2ccccc2)N2C[C@H](Cc3ccccc3)N(CCc3ccccc3)C2=S)cc1 |  | active: 16.4 µM
Cc1cccc(C)c1NC(=O)CNC(=O)C(Cc1ccccc1)NC(=O)c1ccccc1 (stereo not given) | inactive: -16.7% | 
C[C@H]1CN([C@@H](C)CO)S(=O)(=O)c2ccc(Br)cc2O[C@H]1CN(C)C(=O)c1cnccn1 | inactive: -9.71% | 
COc1cc(CNc2ncnc3c2ncn3[C@H]2CN(Cc3ccc(C(=O)O)cc3)C[C@@H](CO)O2)cc(OC)c1OC | inactive: 0.763% | 
Brc1cccc(-c2nnc3sc(CNCc4ccco4)cn23)c1 |  | inconclusive [inhibitor, single point]
Cc1ccc(N2C(=O)c3cccc4cccc(c34)C2=O)cc1 | inactive: -3.01% | 
OCC[C@@H]1C[C@@H](O)[C@H](O)[C@]2(CCc3ccccc3O2)O1 |  | inconclusive [inhibitor, single point]
O=C(CCNC(=O)c1ccccc1Cl)NN=Cc1ccccc1[N+](=O)[O-] | inconclusive: -32.7% [inhibitor] | 

— PubChem BioAssay AID686979 (National Center for Advancing Translational Sciences (NCATS), 2013)
